# In the supplement of paper PMC8728848:
# Some of the results follow.
# B1: Arath Fbox (Arabidopsis thaliana), NP_178341.1 (protein)
# chain: EFTWGRKRRVKSESSPFDSFPEDCISYIISFTNPRDACVAATVSKTFESTVKSDIIWEKFLPADYESLIPPSRVFSSKKELYFSLCNDPVLFDDDKKSVWLEKASGKRCLMLSAMNLSIIWGDNPQYWQWIPIPESRFEKVAKLRDVCWFEIRGRTNTRVLSPRTRYSAYIVFKGVDKCYGFQNVAIEAAVGVVGQEPSRRLICFSEAIRRGRRNVVKPKQREDGWMEIELGEFFNDGGIMDNDEIEMSALETKQLNRKCGLIIQGIEIRPAKILAAAAASFLEQKLISEEDLNSAVDHHHHHH
# Key:
# Assay in all cases: glycan array binding signal (z-score within array); higher = stronger binding
# Settings in all cases: glycan notation: IUPAC condensed, linker removed
# [1] = molecular target: Gal(b1-3)GlcNAc(b1-6)GalNAc
# Method in brief: (§1)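 The Consortium for Functional Glycomics database supplied 3228 glycan arrays, of which those lacking an available protein sequence were dropped. The binding signal, a within-array Z-score, was averaged across arrays of the same protein sequence and across linkers. Negative scores can be read as non-binding.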
# [2] = molecular target: Gal(b1-3)GlcNAc(b1-6)[Gal(b1-3)]GalNAc
# Method in brief: as §1
# Gal(b1-3)GlcNAc6S = molecular target: Gal(b1-3)GlcNAc6S
# Method in brief: as §1
# [3] = molecular target: Gal(b1-3)[Fuc(a1-4)]GlcNAc
# Method in brief: as §1
# [4] = molecular target: Gal(b1-3)[Fuc(a1-4)]GlcNAc(b1-2)Man
# Method in brief: as §1
# [5] = molecular target: Gal(b1-3)[Fuc(a1-4)]GlcNAc(b1-2)Man(a1-3)[Gal(b1-3)[Fuc(a1-4)]GlcNAc(b1-2)Man(a1-6)]Man(b1-4)GlcNAc(b1-4)[Fuc(a1-6)]GlcNAc
# Method in brief: as §1
# [6] = molecular target: Gal(b1-3)[Fuc(a1-4)]GlcNAc(b1-3)Gal(b1-3)[Fuc(a1-4)]GlcNAc
# Method in brief: as §1
# [7] = molecular target: Gal(b1-3)[Fuc(a1-4)]GlcNAc(b1-3)Gal(b1-4)[Fuc(a1-3)]GlcNAc
# Method in brief: as §1
# [8] = molecular target: Gal(b1-3)[Fuc(a1-4)]GlcNAc(b1-6)GalNAc
# Method in brief: as §1
# [9] = molecular target: Gal(b1-3)[GlcNAc(b1-6)]GalNAc
# Method in brief: as §1
# [10] = molecular target: Gal(b1-3)[Neu5Ac(a2-6)]GalNAc
# Method in brief: as §1
# [11] = molecular target: Gal(b1-3)[Neu5Ac(a2-6)]GlcNAc(b1-4)Gal(b1-4)Glc
# Method in brief: as §1
# [12] = molecular target: Gal(b1-3)[Neu5Ac(b2-6)]GalNAc
# Method in brief: as §1
# Gal(b1-4)Gal = molecular target: Gal(b1-4)Gal
# Method in brief: as §1
# [13] = molecular target: Gal(b1-4)GalNAc(a1-3)[Fuc(a1-2)]Gal(b1-4)GlcNAc
# Method in brief: as §1
# [14] = molecular target: Gal(b1-4)GalNAc(b1-3)[Fuc(a1-2)]Gal(b1-4)GlcNAc
# Method in brief: as §1
# Gal(b1-4)Glc = molecular target: Gal(b1-4)Glc
# Method in brief: as §1
# Gal(b1-4)Glc6S = molecular target: Gal(b1-4)Glc6S
# Method in brief: as §1
# Gal(b1-4)GlcNAc = molecular target: Gal(b1-4)GlcNAc
# Method in brief: as §1
# [15] = molecular target: Gal(b1-4)GlcNAc(a1-6)Gal(b1-4)GlcNAc
# Method in brief: as §1
# Gal(b1-4)GlcNAc(b1-2)Man = molecular target: Gal(b1-4)GlcNAc(b1-2)Man
# Method in brief: as §1
# [16] = molecular target: Gal(b1-4)GlcNAc(b1-2)Man(a1-3)Man(b1-4)GlcNAc(b1-4)GlcNAc
# Method in brief: as §1
# [17] = molecular target: Gal(b1-4)GlcNAc(b1-2)Man(a1-3)[Gal(b1-4)GlcNAc(b1-2)Man(a1-6)]Man(b1-4)GlcNAc(b1-4)GlcNAc
# Method in brief: as §1
# [18] = molecular target: Gal(b1-4)GlcNAc(b1-2)Man(a1-3)[Gal(b1-4)GlcNAc(b1-2)Man(a1-6)]Man(b1-4)GlcNAc(b1-4)[Fuc(a1-6)]GlcNAc
# Method in brief: as §1
# [19] = molecular target: Gal(b1-4)GlcNAc(b1-2)Man(a1-3)[Gal(b1-4)GlcNAc(b1-2)Man(a1-6)][Gal(b1-4)GlcNAc(b1-4)]Man(b1-4)GlcNAc(b1-4)[Fuc(a1-6)]GlcNAc
# Method in brief: as §1
# [20] = molecular target: Gal(b1-4)GlcNAc(b1-2)Man(a1-3)[Gal(b1-4)GlcNAc(b1-2)Man(a1-6)][GlcNAc(b1-4)]Man(b1-4)GlcNAc(b1-4)[Fuc(a1-6)]GlcNAc
# Method in brief: as §1
# [21] = molecular target: Gal(b1-4)GlcNAc(b1-2)Man(a1-3)[GlcNAc(b1-2)Man(a1-6)]Man(b1-4)GlcNAc(b1-4)GlcNAc
# Method in brief: as §1
# [22] = molecular target: Gal(b1-4)GlcNAc(b1-2)Man(a1-3)[GlcNAc(b1-4)][Gal(b1-4)GlcNAc(b1-2)Man(a1-6)]Man(b1-4)GlcNAc(b1-4)GlcNAc
# Method in brief: as §1
# [23] = molecular target: Gal(b1-4)GlcNAc(b1-2)Man(a1-3)[Man(a1-6)]Man(b1-4)GlcNAc(b1-4)GlcNAc
# Method in brief: as §1
# [24] = molecular target: Gal(b1-4)GlcNAc(b1-2)Man(a1-6)Man(b1-4)GlcNAc(b1-4)GlcNAc
# Method in brief: as §1
# [25] = molecular target: Gal(b1-4)GlcNAc(b1-2)Man(a1-6)[GlcNAc(b1-2)Man(a1-3)]Man(b1-4)GlcNAc(b1-4)GlcNAc
# Method in brief: as §1
# [26] = molecular target: Gal(b1-4)GlcNAc(b1-2)Man(a1-6)[Man(a1-3)]Man(b1-4)GlcNAc(b1-4)GlcNAc
# Method in brief: as §1
# [27] = molecular target: Gal(b1-4)GlcNAc(b1-2)[Gal(b1-4)GlcNAc(b1-4)]Man(a1-3)[Gal(b1-4)GlcNAc(b1-2)Man(a1-6)]Man(b1-4)GlcNAc(b1-4)GlcNAc
# Method in brief: as §1
# [28] = molecular target: Gal(b1-4)GlcNAc(b1-2)[Gal(b1-4)GlcNAc(b1-4)]Man(a1-3)[Gal(b1-4)GlcNAc(b1-2)[Gal(b1-4)GlcNAc(b1-6)]Man(a1-6)]Man(b1-4)GlcNAc(b1-4)GlcNAc
# Method in brief: as §1
# [29] = molecular target: Gal(b1-4)GlcNAc(b1-2)[Gal(b1-4)GlcNAc(b1-4)]Man(a1-3)[GlcNAc(b1-4)][Gal(b1-4)GlcNAc(b1-2)Man(a1-6)]Man(b1-4)GlcNAc(b1-4)GlcNAc
# Method in brief: as §1
# [30] = molecular target: Gal(b1-4)GlcNAc(b1-2)[Gal(b1-4)GlcNAc(b1-4)]Man(a1-3)[GlcNAc(b1-4)][Gal(b1-4)GlcNAc(b1-2)[Gal(b1-4)GlcNAc(b1-6)]Man(a1-6)]Man(b1-4)GlcNAc(b1-4)GlcNAc
# Method in brief: as §1
# [31] = molecular target: Gal(b1-4)GlcNAc(b1-2)[Gal(b1-4)GlcNAc(b1-6)]Man(a1-6)[Gal(b1-4)GlcNAc(b1-2)Man(a1-3)]Man(b1-4)GlcNAc(b1-4)GlcNAc
# Method in brief: as §1
binder,measurement,setting,value
B1,glycan array binding signal (z-score),[1],-0.072
same,glycan array binding signal (z-score),[2],1.13
same,glycan array binding signal (z-score),Gal(b1-3)GlcNAc6S,-0.198
same,glycan array binding signal (z-score),[3],0.133
same,glycan array binding signal (z-score),[4],2.33
same,glycan array binding signal (z-score),[5],0.546
same,glycan array binding signal (z-score),[6],-0.708
same,glycan array binding signal (z-score),[7],0.178
same,glycan array binding signal (z-score),[8],0.8
same,glycan array binding signal (z-score),[9],0.085
same,glycan array binding signal (z-score),[10],-0.448
same,glycan array binding signal (z-score),[11],-0.093
same,glycan array binding signal (z-score),[12],-0.695
same,glycan array binding signal (z-score),Gal(b1-4)Gal,0.216
same,glycan array binding signal (z-score),[13],-0.522
same,glycan array binding signal (z-score),[14],-0.611
same,glycan array binding signal (z-score),Gal(b1-4)Glc,-0.359
same,glycan array binding signal (z-score),Gal(b1-4)Glc6S,0.347
same,glycan array binding signal (z-score),Gal(b1-4)GlcNAc,0.319
same,glycan array binding signal (z-score),[15],-0.587
same,glycan array binding signal (z-score),Gal(b1-4)GlcNAc(b1-2)Man,-0.413
same,glycan array binding signal (z-score),[16],-0.673
same,glycan array binding signal (z-score),[17],-0.122
same,glycan array binding signal (z-score),[18],1.3
same,glycan array binding signal (z-score),[19],-0.066
same,glycan array binding signal (z-score),[20],-0.707
same,glycan array binding signal (z-score),[21],-0.602
same,glycan array binding signal (z-score),[22],-0.698
same,glycan array binding signal (z-score),[23],-0.048
same,glycan array binding signal (z-score),[24],2.46
same,glycan array binding signal (z-score),[25],-0.209
same,glycan array binding signal (z-score),[26],0.739
same,glycan array binding signal (z-score),[27],-0.507
same,glycan array binding signal (z-score),[28],0.106
same,glycan array binding signal (z-score),[29],-0.348
same,glycan array binding signal (z-score),[30],0.281
same,glycan array binding signal (z-score),[31],0.24
